Nine molecules from publication PMC5805785, “Site-specific phosphorylation of TRANSPARENT TESTA GLABRA1 mediates carbon partitioning in Arabidopsis seeds” (Nature Communications, 2018) can be followed below.

No constants are given. Whether binding was seen depends on the method and setting. For some of these results: Binding seen in cells or lysates may run through a third protein. Some results given as binding are weak or reduced against the parent protein; the word gives no strength. For some of these results: Sequences can lack the tags named with a protein.

Test [1] addresses T1, TTG1 fused to cYFP (Arabidopsis thaliana) (UniProt Q9XGN1).
T1 sequence: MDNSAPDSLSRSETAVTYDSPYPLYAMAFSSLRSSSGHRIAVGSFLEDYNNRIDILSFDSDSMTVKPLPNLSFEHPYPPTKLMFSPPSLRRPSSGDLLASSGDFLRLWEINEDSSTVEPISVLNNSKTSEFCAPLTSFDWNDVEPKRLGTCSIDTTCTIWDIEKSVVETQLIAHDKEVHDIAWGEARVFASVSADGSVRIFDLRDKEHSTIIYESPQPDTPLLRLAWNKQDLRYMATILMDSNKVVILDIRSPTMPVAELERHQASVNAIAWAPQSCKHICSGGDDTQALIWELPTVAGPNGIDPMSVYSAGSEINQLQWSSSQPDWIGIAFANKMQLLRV
Kind of test: split reporter; BiFC: cYFP and nYFP fusions co-expressed in Nicotiana benthamiana leaf epidermal cells by Agrobacterium infiltration, confocal microscopy 2 days after infiltration.

Test [2] has as its target T2, TTG1 in pGBKT7 (Arabidopsis thaliana) (UniProt Q9XGN1).
T2 sequence: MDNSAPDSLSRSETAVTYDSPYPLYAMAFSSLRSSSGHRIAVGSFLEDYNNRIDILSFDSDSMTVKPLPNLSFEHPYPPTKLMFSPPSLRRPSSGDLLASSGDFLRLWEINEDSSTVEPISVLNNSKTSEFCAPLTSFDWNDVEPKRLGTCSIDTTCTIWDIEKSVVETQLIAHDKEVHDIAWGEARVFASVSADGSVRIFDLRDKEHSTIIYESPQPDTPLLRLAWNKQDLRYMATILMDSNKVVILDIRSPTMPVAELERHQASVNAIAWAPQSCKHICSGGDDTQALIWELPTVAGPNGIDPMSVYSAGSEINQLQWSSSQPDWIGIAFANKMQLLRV
The test can be described thus: two-hybrid; yeast two-hybrid, pGADT7 and pGBKT7 fusions; growth on SD-Trp/-Leu/-His with 0.3 mM 3AT, ten-fold serial dilutions.

The target of test [3] is T3, 4HA-TTG1 (Arabidopsis thaliana) (UniProt Q9XGN1).
T3 sequence: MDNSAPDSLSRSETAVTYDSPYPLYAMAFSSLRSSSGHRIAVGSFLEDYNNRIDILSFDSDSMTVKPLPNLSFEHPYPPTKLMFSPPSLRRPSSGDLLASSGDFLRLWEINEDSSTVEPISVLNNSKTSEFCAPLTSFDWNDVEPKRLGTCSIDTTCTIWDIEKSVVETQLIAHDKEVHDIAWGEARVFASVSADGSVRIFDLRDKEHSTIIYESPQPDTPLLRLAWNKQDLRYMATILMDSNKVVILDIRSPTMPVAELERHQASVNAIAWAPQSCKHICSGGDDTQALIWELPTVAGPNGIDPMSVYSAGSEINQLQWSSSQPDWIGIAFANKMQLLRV
The test can be described thus: co-IP; total protein extracts of transgenic Arabidopsis siliques 4 days after pollination; anti-HA agarose beads, 4 °C, 2 h; 50 mM Tris-HCl pH 7.5, 150 mM NaCl, 1 mM EDTA, 5% glycerol, 0.5% Triton X-100; blot with anti-GFP and anti-HA.

Test [4] has as its target T4, TT2 in pGBKT7 (… TESTA2) (Arabidopsis thaliana) (UniProt Q9FJA2).
T4 sequence: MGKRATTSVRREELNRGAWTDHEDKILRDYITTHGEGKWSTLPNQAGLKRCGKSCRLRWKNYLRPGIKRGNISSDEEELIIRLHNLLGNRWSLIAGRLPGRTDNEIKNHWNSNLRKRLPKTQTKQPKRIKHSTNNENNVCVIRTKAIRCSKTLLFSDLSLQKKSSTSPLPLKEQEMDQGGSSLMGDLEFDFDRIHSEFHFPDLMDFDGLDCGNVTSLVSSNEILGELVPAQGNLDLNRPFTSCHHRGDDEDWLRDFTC
The test can be described thus: two-hybrid; yeast two-hybrid, pGADT7 and pGBKT7 fusions; growth on SD-Trp/-Leu/-His with 0.7 mM 3AT, ten-fold serial dilutions.

Test [5] deals with T5, GST-SK12 (Arabidopsis thaliana) (UniProt P43289).
T5 sequence: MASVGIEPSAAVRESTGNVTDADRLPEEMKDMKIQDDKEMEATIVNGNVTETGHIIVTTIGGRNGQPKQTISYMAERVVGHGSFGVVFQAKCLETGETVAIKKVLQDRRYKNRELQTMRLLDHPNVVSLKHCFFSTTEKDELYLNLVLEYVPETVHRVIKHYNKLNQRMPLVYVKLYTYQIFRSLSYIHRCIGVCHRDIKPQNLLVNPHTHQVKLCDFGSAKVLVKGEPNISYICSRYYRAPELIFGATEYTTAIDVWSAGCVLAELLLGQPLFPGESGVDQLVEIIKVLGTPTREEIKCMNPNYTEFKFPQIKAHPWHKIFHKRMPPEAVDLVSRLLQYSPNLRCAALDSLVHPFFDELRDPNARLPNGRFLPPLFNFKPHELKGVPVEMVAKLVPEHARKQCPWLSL
The test can be described thus: pull-down; GST, GST-SK11 and GST-SK12 on glutathione sepharose beads as baits; MBP and MBP-TTG1 as preys (called in vitro-translated in the results), detected by immunoblot; only the target purified. A general note: Immunoblotting shows a protein as a band on a membrane.

Test [6] addresses T6, GST-SK11 (Arabidopsis thaliana) (UniProt P43288).
T6 sequence: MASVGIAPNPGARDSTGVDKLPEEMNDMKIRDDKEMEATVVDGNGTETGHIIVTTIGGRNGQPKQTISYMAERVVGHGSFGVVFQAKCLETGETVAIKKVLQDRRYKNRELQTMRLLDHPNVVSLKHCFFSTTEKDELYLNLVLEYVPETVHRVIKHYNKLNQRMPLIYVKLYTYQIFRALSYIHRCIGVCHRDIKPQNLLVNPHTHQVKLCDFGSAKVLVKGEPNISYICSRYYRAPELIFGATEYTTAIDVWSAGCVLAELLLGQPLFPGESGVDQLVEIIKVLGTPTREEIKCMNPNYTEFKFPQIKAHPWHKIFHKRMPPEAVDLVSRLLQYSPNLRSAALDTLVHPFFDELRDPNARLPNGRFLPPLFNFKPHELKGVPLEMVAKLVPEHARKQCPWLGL
The test is described as above.

B1: SK12 fused to nYFP (enzyme, UniProt P43289 1-409)
chain: MASVGIEPSAAVRESTGNVTDADRLPEEMKDMKIQDDKEMEATIVNGNVTETGHIIVTTIGGRNGQPKQTISYMAERVVGHGSFGVVFQAKCLETGETVAIKKVLQDRRYKNRELQTMRLLDHPNVVSLKHCFFSTTEKDELYLNLVLEYVPETVHRVIKHYNKLNQRMPLVYVKLYTYQIFRSLSYIHRCIGVCHRDIKPQNLLVNPHTHQVKLCDFGSAKVLVKGEPNISYICSRYYRAPELIFGATEYTTAIDVWSAGCVLAELLLGQPLFPGESGVDQLVEIIKVLGTPTREEIKCMNPNYTEFKFPQIKAHPWHKIFHKRMPPEAVDLVSRLLQYSPNLRCAALDSLVHPFFDELRDPNARLPNGRFLPPLFNFKPHELKGVPVEMVAKLVPEHARKQCPWLSL
As to B1, the binding result in test [1] is recorded as “binds”.

B2: SK12 in pGADT7 (enzyme, UniProt P43289 1-409)
chain: MASVGIEPSAAVRESTGNVTDADRLPEEMKDMKIQDDKEMEATIVNGNVTETGHIIVTTIGGRNGQPKQTISYMAERVVGHGSFGVVFQAKCLETGETVAIKKVLQDRRYKNRELQTMRLLDHPNVVSLKHCFFSTTEKDELYLNLVLEYVPETVHRVIKHYNKLNQRMPLVYVKLYTYQIFRSLSYIHRCIGVCHRDIKPQNLLVNPHTHQVKLCDFGSAKVLVKGEPNISYICSRYYRAPELIFGATEYTTAIDVWSAGCVLAELLLGQPLFPGESGVDQLVEIIKVLGTPTREEIKCMNPNYTEFKFPQIKAHPWHKIFHKRMPPEAVDLVSRLLQYSPNLRCAALDSLVHPFFDELRDPNARLPNGRFLPPLFNFKPHELKGVPVEMVAKLVPEHARKQCPWLSL
For B2, in test [2], the binding result is “binds”.

B3: SK11 fused to nYFP (enzyme, UniProt P43288 1-405)
chain: MASVGIAPNPGARDSTGVDKLPEEMNDMKIRDDKEMEATVVDGNGTETGHIIVTTIGGRNGQPKQTISYMAERVVGHGSFGVVFQAKCLETGETVAIKKVLQDRRYKNRELQTMRLLDHPNVVSLKHCFFSTTEKDELYLNLVLEYVPETVHRVIKHYNKLNQRMPLIYVKLYTYQIFRALSYIHRCIGVCHRDIKPQNLLVNPHTHQVKLCDFGSAKVLVKGEPNISYICSRYYRAPELIFGATEYTTAIDVWSAGCVLAELLLGQPLFPGESGVDQLVEIIKVLGTPTREEIKCMNPNYTEFKFPQIKAHPWHKIFHKRMPPEAVDLVSRLLQYSPNLRSAALDTLVHPFFDELRDPNARLPNGRFLPPLFNFKPHELKGVPLEMVAKLVPEHARKQCPWLGL
For B3, the binding result in test [1] is “binds”.

B4: SK11^E292K-GFP (enzyme, UniProt P43288 1-405)
chain: MASVGIAPNPGARDSTGVDKLPEEMNDMKIRDDKEMEATVVDGNGTETGHIIVTTIGGRNGQPKQTISYMAERVVGHGSFGVVFQAKCLETGETVAIKKVLQDRRYKNRELQTMRLLDHPNVVSLKHCFFSTTEKDELYLNLVLEYVPETVHRVIKHYNKLNQRMPLIYVKLYTYQIFRALSYIHRCIGVCHRDIKPQNLLVNPHTHQVKLCDFGSAKVLVKGEPNISYICSRYYRAPELIFGATEYTTAIDVWSAGCVLAELLLGQPLFPGESGVDQLVEIIKVLGTPTRKEIKCMNPNYTEFKFPQIKAHPWHKIFHKRMPPEAVDLVSRLLQYSPNLRSAALDTLVHPFFDELRDPNARLPNGRFLPPLFNFKPHELKGVPLEMVAKLVPEHARKQCPWLGL
Turning to B4, in test [3], the binding result was “binds”.

B5: SK11 in pGADT7 (enzyme, UniProt P43288 1-405)
chain: MASVGIAPNPGARDSTGVDKLPEEMNDMKIRDDKEMEATVVDGNGTETGHIIVTTIGGRNGQPKQTISYMAERVVGHGSFGVVFQAKCLETGETVAIKKVLQDRRYKNRELQTMRLLDHPNVVSLKHCFFSTTEKDELYLNLVLEYVPETVHRVIKHYNKLNQRMPLIYVKLYTYQIFRALSYIHRCIGVCHRDIKPQNLLVNPHTHQVKLCDFGSAKVLVKGEPNISYICSRYYRAPELIFGATEYTTAIDVWSAGCVLAELLLGQPLFPGESGVDQLVEIIKVLGTPTREEIKCMNPNYTEFKFPQIKAHPWHKIFHKRMPPEAVDLVSRLLQYSPNLRSAALDTLVHPFFDELRDPNARLPNGRFLPPLFNFKPHELKGVPLEMVAKLVPEHARKQCPWLGL
In the case of B5, the binding entry in test [2] was “binds”.

B6: TTG1^S215A in pGADT7 (protein, UniProt Q9XGN1 1-341)
chain: MDNSAPDSLSRSETAVTYDSPYPLYAMAFSSLRSSSGHRIAVGSFLEDYNNRIDILSFDSDSMTVKPLPNLSFEHPYPPTKLMFSPPSLRRPSSGDLLASSGDFLRLWEINEDSSTVEPISVLNNSKTSEFCAPLTSFDWNDVEPKRLGTCSIDTTCTIWDIEKSVVETQLIAHDKEVHDIAWGEARVFASVSADGSVRIFDLRDKEHSTIIYEAPQPDTPLLRLAWNKQDLRYMATILMDSNKVVILDIRSPTMPVAELERHQASVNAIAWAPQSCKHICSGGDDTQALIWELPTVAGPNGIDPMSVYSAGSEINQLQWSSSQPDWIGIAFANKMQLLRV
On to B6, for which the binding result in test [4] was “binds”.

B7: TTG1^S215E in pGADT7 (protein, UniProt Q9XGN1 1-341)
chain: MDNSAPDSLSRSETAVTYDSPYPLYAMAFSSLRSSSGHRIAVGSFLEDYNNRIDILSFDSDSMTVKPLPNLSFEHPYPPTKLMFSPPSLRRPSSGDLLASSGDFLRLWEINEDSSTVEPISVLNNSKTSEFCAPLTSFDWNDVEPKRLGTCSIDTTCTIWDIEKSVVETQLIAHDKEVHDIAWGEARVFASVSADGSVRIFDLRDKEHSTIIYEEPQPDTPLLRLAWNKQDLRYMATILMDSNKVVILDIRSPTMPVAELERHQASVNAIAWAPQSCKHICSGGDDTQALIWELPTVAGPNGIDPMSVYSAGSEINQLQWSSSQPDWIGIAFANKMQLLRV
In the case of B7, the binding result in test [4] is listed as “no binding”.

B8: TTG1 in pGADT7 (protein, UniProt Q9XGN1 1-341)
chain: MDNSAPDSLSRSETAVTYDSPYPLYAMAFSSLRSSSGHRIAVGSFLEDYNNRIDILSFDSDSMTVKPLPNLSFEHPYPPTKLMFSPPSLRRPSSGDLLASSGDFLRLWEINEDSSTVEPISVLNNSKTSEFCAPLTSFDWNDVEPKRLGTCSIDTTCTIWDIEKSVVETQLIAHDKEVHDIAWGEARVFASVSADGSVRIFDLRDKEHSTIIYESPQPDTPLLRLAWNKQDLRYMATILMDSNKVVILDIRSPTMPVAELERHQASVNAIAWAPQSCKHICSGGDDTQALIWELPTVAGPNGIDPMSVYSAGSEINQLQWSSSQPDWIGIAFANKMQLLRV
On to B8, for which the binding entry in test [4] is recorded as “binds”.

B9: MBP-TTG1 (… TESTA GLABRA1) (protein, UniProt Q9XGN1 1-341)
chain: MDNSAPDSLSRSETAVTYDSPYPLYAMAFSSLRSSSGHRIAVGSFLEDYNNRIDILSFDSDSMTVKPLPNLSFEHPYPPTKLMFSPPSLRRPSSGDLLASSGDFLRLWEINEDSSTVEPISVLNNSKTSEFCAPLTSFDWNDVEPKRLGTCSIDTTCTIWDIEKSVVETQLIAHDKEVHDIAWGEARVFASVSADGSVRIFDLRDKEHSTIIYESPQPDTPLLRLAWNKQDLRYMATILMDSNKVVILDIRSPTMPVAELERHQASVNAIAWAPQSCKHICSGGDDTQALIWELPTVAGPNGIDPMSVYSAGSEINQLQWSSSQPDWIGIAFANKMQLLRV
As to B9, the binding result in test [5] and in test [6] was “binds” each time.
